Hit rate of the full screen: of about 220,000 compounds, about 16,000 (7.3%) were called active. Inconclusive means that the source gave no clear call. Such entries were picked first, then a sample of the others. Calls come from the whole dose curve; as a rule, active = well fitted inhibition curve with a large enough effect (not every such curve was filed as active); inconclusive = small, poorly fitted or top-dose-only effect, or another doubt; inactive = no such curve, though single readings can be large or run the other way. Potencies beside an inconclusive call are fits to weak or partial responses and may not hold up.
Molecular target: Aldehyde dehydrogenase 1A1 (Homo sapiens) (UniProt P00352)
UniProt P00352, sequence (P00352 whole entry, looked up): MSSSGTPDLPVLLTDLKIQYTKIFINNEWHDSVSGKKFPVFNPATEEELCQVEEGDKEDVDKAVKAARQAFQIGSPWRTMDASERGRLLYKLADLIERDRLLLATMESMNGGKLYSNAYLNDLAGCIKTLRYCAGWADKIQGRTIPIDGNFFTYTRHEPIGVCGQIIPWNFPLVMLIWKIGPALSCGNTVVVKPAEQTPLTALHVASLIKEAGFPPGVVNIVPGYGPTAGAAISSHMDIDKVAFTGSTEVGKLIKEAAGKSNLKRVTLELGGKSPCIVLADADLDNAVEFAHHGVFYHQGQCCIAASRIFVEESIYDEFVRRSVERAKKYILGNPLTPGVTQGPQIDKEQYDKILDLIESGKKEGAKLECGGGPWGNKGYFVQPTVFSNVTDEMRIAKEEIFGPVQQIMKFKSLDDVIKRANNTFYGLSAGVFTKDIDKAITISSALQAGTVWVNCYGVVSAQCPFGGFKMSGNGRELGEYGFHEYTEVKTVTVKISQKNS
Assay: qHTS Assay for Inhibitors of Aldehyde Dehydrogenase 1 (ALDH1A1)
Details: Purified ALDH1A1, NADH fluorescence, propionaldehyde substrate; series mostly up to 75.3 µM
Potency is the fitted concentration of half-maximal effect; tags give direction and shape of the fitted curve.

Potency, inconclusive:
Nc1ccc2oc3ccccc3c2c1 39.8 µM [inhibitor, single point], COc1ccc(N(CC(=O)NN=C2CCCCCCC2)S(=O)(=O)c2ccccc2)cc1 39.8 µM [inhibitor, single point], Cc1ccc(-c2cc(C(=O)Nc3cc(C)on3)c3ccccc3n2)c(C)c1 39.8 µM [inhibitor, single point], O=c1ccc2ccc(Oc3ccc([N+](=O)[O-])cc3[N+](=O)[O-])cc2o1 0.891 µM [inhibitor, full curve], O=c1c(-c2ccccc2)nc2cnc(N3CCNCC3)nc2n1Cc1ccc(F)cc1 28.2 µM [inhibitor, partial curve], O=C(O)CN(c1ccccn1)S(=O)(=O)c1ccc(Cl)cc1 35.5 µM [inhibitor, single point], CCOC(=O)c1nn(-c2ccc(OCC)cc2)c2nc(-c3ccco3)c(C#N)c(=O)n12 31.6 µM [inhibitor, partial curve], O=C(COc1ccc(Br)cc1Br)NC(=O)NC1CCCC1 14.1 µM [inhibitor, partial curve], Cc1cc(C)cc(NS(=O)(=O)c2ccc3[nH]cc(C(=O)NCc4ccco4)c(=O)c3c2)c1 39.8 µM [inhibitor, single point], COc1ccc(-c2cc3ccccc3oc2=O)cc1NC(=O)c1cccnc1 25.1 µM [inhibitor, single point], Cc1cc(NC(=O)CCC(=O)N(CC(=O)NC2CCCC2)Cc2ccc(F)cc2)no1 22.4 µM [inhibitor, single point], CCOC(=O)c1ccc(CSc2ncn[nH]2)o1 39.8 µM [inhibitor, single point], CCn1c(CCCNC(=O)c2cccs2)nc2ccccc21 25.1 µM [inhibitor, single point], O=C(CSc1nnc(CNc2ccc(F)cc2)n1CC1CCCO1)Nc1ccccc1 (stereo not drawn) 39.8 µM [inhibitor, single point], CCOC(=O)C1CCN(C(c2cccnc2)c2c(NC(=O)c3ccco3)sc(C)c2C)CC1 (stereo not drawn) 39.8 µM [inhibitor, single point], CC(C)(C)c1nn(-c2ccccc2)c2[nH]c(=O)c(CNc3ccc4c(c3)OCCO4)cc12 39.8 µM [inhibitor, single point], COc1cccc(C2=CC(c3ccccc3)n3nnnc3N2)c1 (stereo not drawn) 15.8 µM [inhibitor, partial curve], Cn1c(=O)c(C(=O)CN2CC(=O)Nc3ccccc32)c(N)n(Cc2ccccc2)c1=O 39.8 µM [inhibitor, single point], Cc1ccc(Nc2nnc(SCC(=O)c3cc4ccccc4o3)s2)cc1C 17.8 µM [inhibitor, single point], CSc1ccc(/C=N/n2nnnc2N)cc1 25.1 µM [inhibitor, partial curve], CCOC(=O)c1c(C)[nH]c(C(=O)COC(=O)CCSc2ccccc2)c1C 35.5 µM [inhibitor, single point], COC(=O)CSc1nc(N)c(C#N)c(C(C)C)c1C#N 22.4 µM [inhibitor, partial curve], C=CCn1c(SCC(=O)c2ccc(OC)cc2)nnc1C(C)NC(=O)c1cccs1 (stereo not drawn) 20 µM [inhibitor, single point], COc1ccc(OC)c2c1CCC2=O 39.8 µM [inhibitor, single point], O=C(NCc1nnc(SCC(=O)N2CCCCCC2)o1)c1ccco1 25.1 µM [inhibitor, partial curve], CC(=O)NC(CC(=O)Nc1ccc(S(=O)(=O)N2CCCC2)cc1)c1ccccc1 (stereo not drawn) 39.8 µM [inhibitor, single point], O=C(C1=C(O)C(=O)N(CCCN2CCOCC2)C1c1ccccn1)c1cc2ccccc2o1 (stereo not drawn) 44.7 µM [inhibitor, single point], O=C(Nc1ccc2nsnc2c1)N1CCCCC1 35.5 µM [inhibitor, single point], COc1ccc(-c2cc(-c3cccs3)c(C#N)c(SCC(=O)NCc3ccco3)n2)cc1 28.2 µM [inhibitor, partial curve], O=C1NC2=C(CCc3ccccc32)C(c2ccc(Br)cc2)N1 (stereo not drawn) 23.8 µM [inhibitor, partial curve], Cc1ccc([C@@H]2C3COCC=C3C(C#N)=C(N)C2(C#N)C#N)o1 (stereo partly drawn) 22.4 µM [inhibitor, partial curve], C[C@H](Br)C(=O)c1ccc2cc(Br)c3ccccc3c2c1 3.16 µM [inhibitor, partial curve], Cc1ccc(S(=O)(=O)N2CCN(c3ccnc4cc(Cl)ccc34)CC2)cc1C 35.5 µM [inhibitor, single point], CN(C)c1ccc(NC(=S)N(CCc2ccccc2)C2CC(=O)N(c3c(Cl)cccc3Cl)C2=O)cc1 (stereo not drawn) 44.7 µM [inhibitor, single point], Cc1nn(-c2ccccc2)c(C)c1/C=N/NC(=O)c1cc(-c2ccc(Br)s2)[nH]n1 35.5 µM [inhibitor, single point], CCC(=O)c1ccc(N2CCN(C(=O)COc3ccc(F)cc3)CC2)c(F)c1 31.6 µM [inhibitor, single point], O=C(c1ccco1)N1CCN(CC(=O)N2CCCc3c2c(=O)oc2ccc(O)cc32)CC1 23.8 µM [inhibitor, single point], CCOc1cc(NC(=S)NCC2CCCO2)c(OCC)cc1NC(=O)c1ccc(C)cc1 (stereo not drawn) 28.2 µM [inhibitor, single point], CC(C)=CC(=O)NCCc1ccccc1 11.9 µM [inhibitor, single point], Cc1ccc(S(=O)(=O)N2CCC(C(=O)NCCN3CCCCCC3)CC2)cc1 25.1 µM [inhibitor, single point], Cc1ccc2nc(-c3ccc(NC(=O)COCC(=O)O)cc3)sc2c1 25.1 µM [inhibitor, partial curve]

Potency, inactive:
CCC(C)n1c(SCc2ccc([N+](=O)[O-])cc2)nc2ccsc2c1=O (stereo not drawn), CCOC(=O)C1=C(C)N=C2SC(C(=O)OC)=CC(=O)N2C1c1ccc(OC)cc1 (stereo not drawn), Cn1c(=O)c(C(=O)COC(=O)c2cc(C3CC3)nc3ccccc23)c(N)n(Cc2ccccc2)c1=O, CC(=O)c1ccc(-n2c(SCC(=O)c3c[nH]c4ccccc34)nc3ccccc3c2=O)cc1, COc1ccc(NC(=O)CCCC(=O)O)cc1Cl, CCc1ccccc1NC(=O)CSc1nnc(-c2ccncc2)o1, Cc1nn(-c2ccccc2)c(C)c1NC(=O)COc1ccc2ccccc2c1, CCCCC(CC)C/C=C1\CC(C(=O)OCC)Oc2ccccc21 (stereo not drawn) (tested in a mixture with another compound), C=CCC1(CC=C)CCCN1C(=O)CC1C(=O)NCCN1Cc1ccccc1OC (stereo not drawn), CCc1ccc2c(c1)C1(C(=O)N2)N2CCCC2C(C(=O)c2ccc3ccccc3c2)C12C(=O)Nc1ccccc12 (stereo not drawn), COc1ccccc1/C=C(\NC(=O)c1ccc(OC)c(OC)c1)C(=O)Nc1cccc([N+](=O)[O-])c1, C/C(=N/NC(=O)CNC(=O)Cc1ccc(Cl)cc1)c1ccco1, COC(=O)c1[nH]c2cccc(OC)c2c1NC(=O)CCN1CCN(c2cccc(Cl)c2)CC1, CC(C)CC1=NN(C(=O)c2ccncc2)C(O)(C(F)(F)F)C1 (stereo not drawn), Cc1ccc(S(=O)(=O)NNC(=O)c2ccccc2O)cc1, CCOC(=O)c1sc(NC(=O)Nc2ccccc2F)nc1C, COCCNC(=O)c1ccc(Cl)c(Cl)c1, CC(=O)Nc1c(C(=O)N2CCCCCC2)cnn1-c1ccccc1Cl, O=[N+]([O-])c1ccc(N2CCCCC2)cn1, Oc1ccccc1/C=N/Nc1cccc2cccnc12, O=Cc1ccc(-c2cccc(C(=O)O)c2)o1

Potency, active:
Cc1ccc(CN(Cc2cccnc2)C(=O)CN2C(=O)COc3ccccc32)o1 28.2 µM, O=C(OCc1nnc(-c2ccccc2)o1)C1CC(=O)N(Cc2ccco2)C1 (stereo not drawn) 15 µM, COc1ccc(S(=O)(=O)N2N=C(c3ccc(NS(C)(=O)=O)cc3)CC2c2ccco2)cc1 (stereo not drawn) 22.4 µM, CC(C)NC(=O)CCS(=O)(=O)c1cccc2nonc12 25.1 µM, Cc1ccc(NC(=O)/C=C\C(=O)O)c([N+](=O)[O-])c1 12.6 µM, COc1cccc(NC(=O)NC(C)C2CC3CCC2C3)c1 (stereo not drawn) 5.01 µM, NS(=O)(=O)c1ccc(NC(=S)NC(=O)c2cccc(Br)c2)cc1 25.1 µM, O=S(=O)(NC(=S)NC1CCCCC1)c1ccc(Br)cc1 25.1 µM, COc1ccc2[nH]cc(C(=O)CN3CCN(C4CCCCC4)CC3)c2c1 25.1 µM, CCn1nnnc1NCc1ccc(N2CCCC2)cc1 35.5 µM, Clc1cc(Sc2ccc(Br)cc2)nnc1-c1ccccc1 1 µM

Reference: PubChem BioAssay AID1030 (National Center for Advancing Translational Sciences (NCATS), 2008)
